Consider 56 compounds from publication PMC4336329 (PLoS ONE, 2015).

Hit rate of the full screen: of about 310,000 compounds, about 2,200 (0.71%) showed an effect of 50% or more. The effect is printed as a negative number. This is one part of the list.

Sequence of human ether-à-go-go-related gene (hERG) potassium channel (Q12809 whole entry, looked up): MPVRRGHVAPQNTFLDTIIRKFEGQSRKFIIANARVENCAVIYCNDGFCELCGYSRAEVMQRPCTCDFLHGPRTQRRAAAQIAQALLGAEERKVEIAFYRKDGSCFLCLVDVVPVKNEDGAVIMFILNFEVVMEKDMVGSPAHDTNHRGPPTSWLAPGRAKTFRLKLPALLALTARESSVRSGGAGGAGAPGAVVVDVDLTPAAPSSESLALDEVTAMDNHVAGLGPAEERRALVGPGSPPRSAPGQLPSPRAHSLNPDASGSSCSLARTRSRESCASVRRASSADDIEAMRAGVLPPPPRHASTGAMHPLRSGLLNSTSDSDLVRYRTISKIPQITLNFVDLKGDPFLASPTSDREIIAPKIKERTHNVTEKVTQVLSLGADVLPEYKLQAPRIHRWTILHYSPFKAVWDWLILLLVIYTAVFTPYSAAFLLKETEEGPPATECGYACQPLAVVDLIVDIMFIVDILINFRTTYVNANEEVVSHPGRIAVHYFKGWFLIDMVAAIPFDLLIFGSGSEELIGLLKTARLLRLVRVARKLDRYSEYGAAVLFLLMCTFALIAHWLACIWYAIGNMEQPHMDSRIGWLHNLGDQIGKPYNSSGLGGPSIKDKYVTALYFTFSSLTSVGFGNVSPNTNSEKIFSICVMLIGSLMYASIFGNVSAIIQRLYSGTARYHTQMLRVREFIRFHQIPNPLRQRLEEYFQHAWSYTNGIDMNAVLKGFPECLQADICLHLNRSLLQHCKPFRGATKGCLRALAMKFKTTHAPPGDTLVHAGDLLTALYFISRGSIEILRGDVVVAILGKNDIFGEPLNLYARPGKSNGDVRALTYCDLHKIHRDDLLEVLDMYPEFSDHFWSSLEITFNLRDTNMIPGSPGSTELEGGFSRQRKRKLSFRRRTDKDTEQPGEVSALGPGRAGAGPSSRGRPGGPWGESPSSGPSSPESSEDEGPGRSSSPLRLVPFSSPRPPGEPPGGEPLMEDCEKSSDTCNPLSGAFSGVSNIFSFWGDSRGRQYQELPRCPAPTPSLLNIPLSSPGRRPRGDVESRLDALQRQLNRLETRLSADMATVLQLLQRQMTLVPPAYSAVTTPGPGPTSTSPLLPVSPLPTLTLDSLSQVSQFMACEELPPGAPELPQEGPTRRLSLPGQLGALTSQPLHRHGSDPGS

The assay concerns the target human ether-à-go-go-related gene (hERG) potassium channel (human, UniProt Q12809). Put plainly: primary screen, population patch clamp on CHO cells stably expressing hERG.
`Cc1ccccc1C(=O)N1CCC(C(=O)NCCc2ccc(S(N)(=O)=O)cc2)CC1`: the “hERG current change (%, negative = inhibition) at 1uM” value came to 14%. As to `CCS(=O)(=O)c1nc(S(=O)(=O)c2ccc(Cl)cc2)c(NCCCN2CCCC2=O)s1`, the “hERG current change (%, negative = inhibition) at 1uM” value came out at 17.5%.

For `Cc1cc(C)c(NC(=O)c2ccc3c(c2)C(=O)N(Cc2cccnc2)C3=O)c(C)c1`, the “hERG current change (%, negative = inhibition) at 1uM” value stood at 2.74%. The value for `COCCn1c(Cc2ccccc2)nnc1SCC(=O)N(C)C` was 5.65%; that for `CCOC(=O)c1[nH]cnc1C(=O)O` was 5.03%; that for `Cc1cc(C(=O)OCC(=O)c2ccccc2)c2ccccc2n1` was 15.2%. As to `C=CCNc1ncnc2c1[nH]c1ccccc12`, the “hERG current change (%, negative = inhibition) at 1uM” value worked out at 2.98%. The value for `Cc1nc(-c2ccc(F)cc2)c(CC(=O)N2CCN(S(=O)(=O)c3cccc(F)c3)CC2)s1` was 10.5%. `CN(C)CCCNc1ncnc2c1cnn2-c1ccccc1`: the “hERG current change (%, negative = inhibition) at 1uM” value turned out to be 6.33%.

In the case of `Cc1ccc(NC(=O)c2cc(NC(=O)c3ccco3)ccc2N2CCOCC2)cc1Cl`, the “hERG current change (%, negative = inhibition) at 1uM” value is listed as -3.21%. Take `O=C1CCN(C(=O)Cc2ccccc2[N+](=O)[O-])CC1`: the “hERG current change (%, negative = inhibition) at 1uM” value is reported as 14.3%. The figure for `CN(C)CCCC1Sc2ccccc2Sc2ccccc21.O=C(O)C(=O)O` (centres unmarked) is 4.39%; for `COc1ccc(NC(=O)COc2ccc(C)nc2[N+](=O)[O-])cc1S(N)(=O)=O` it is 6.34%. The value for `CCOc1ccccc1NC(=O)c1ccc(OCC)c([N+](=O)[O-])c1` was 1.13%; that for `CNC(=O)Oc1cccc(-c2cn3cc(OC(=O)NC)ccc3n2)c1` was -0.168%; that for `CC(=O)c1ccc(NC(=O)CN2C(=O)COc3ccc(S(=O)(=O)N4CCCC4)cc32)cc1` was 5.6%.

For the compound `CC(C)COC(=O)C1C2C=CC3(CN(C4CCCC4)C(=O)C13)O2` (centres unmarked), the “hERG current change (%, negative = inhibition) at 1uM” value is -2.15%.

Turning to `COC(=O)c1ccc(N=NNc2cccc(Br)c2)cc1`, the “hERG current change (%, negative = inhibition) at 1uM” value worked out at 8.24%.

With `O=C(NC(=S)Nc1nc(-c2ccc([N+](=O)[O-])cc2)cs1)c1ccco1`, the “hERG current change (%, negative = inhibition) at 1uM” value amounted to 13.5%. The figure for `COC(=O)c1cc(S(=O)(=O)N(C)C2CCCCC2)c[nH]1` is 14%; for `CN(C)S(=O)(=O)c1ccc(Cl)c(C(=O)Nc2ccc(S(=O)(=O)N3CCOCC3)cc2)c1` it is 7.8%; for `CCN(CC(=O)Nc1c(F)cccc1F)C(=O)c1cc2ccccc2oc1=O` it is -1.25%. The value for `C=CCN1CN(S(=O)(=O)c2ccc(OC)cc2)c2nc3ccccc3nc21` was 16.1%; that for `Cc1ccc(-n2cccc2/C=C2/NC(=O)N(CC(=O)Nc3cccc(C)c3)C2=O)cc1` was 1.56%. On to `Cc1c(Cl)cccc1NC(=O)c1ccccc1-c1ccccc1C(=O)O`, for which the “hERG current change (%, negative = inhibition) at 1uM” value is recorded as 9.88%. Take `O=C(CCl)NC1CCCc2ccccc21` (centres unmarked): the “hERG current change (%, negative = inhibition) at 1uM” value was 9.5%.

In the case of `CCCNC(=O)c1ccc(CN2CCOCC2)cc1`, the “hERG current change (%, negative = inhibition) at 1uM” value worked out at 7.91%.

Turning to `O=C(O)C(=O)O.c1ccc(-c2ccccc2OCCCN2CCCCC2)cc1`, the “hERG current change (%, negative = inhibition) at 1uM” value is reported as -69.1%. The figure for `O=C(N/N=C/c1cn(-c2ccccc2)nc1-c1cccs1)c1ccccc1F` is 12.2%.

As for `CCN(CC(=O)NC(C)(C)C)Cc1cc(=O)n2c(-c3ccccc3)csc2n1`, the “hERG current change (%, negative = inhibition) at 1uM” value was determined as 18.3%. The figure for `S=C(Nc1ccc(Cl)cc1Cl)N1CCOCC1` is 8.45%.

On to `O=C(c1ccc(F)cc1)C1CCN(C(=O)Nc2ccc(F)cc2F)CC1`, for which the “hERG current change (%, negative = inhibition) at 1uM” value is 12.9%. For the compound `O=S(=O)(Nc1ccon1)c1ccc(F)c(F)c1`, the “hERG current change (%, negative = inhibition) at 1uM” value came out at 16.9%. The figure for `Cc1onc(-c2c(Cl)cccc2Cl)c1C(=O)ONC(=O)c1ccccc1` is 14.3%.

With `CSc1n[nH]c(NC(C)=O)n1`, the “hERG current change (%, negative = inhibition) at 1uM” value was found to be 8.29%. Turning to `CC1CCCCC12NC(=O)N(CC(=O)NCc1ccco1)C2=O` (centres unmarked), the “hERG current change (%, negative = inhibition) at 1uM” value was found to be 0.165%. The value for `CCN(CC)C(=S)Nc1c(C)n(C)n(-c2ccccc2)c1=O` was 10.6%. Turning to `COc1cc(-c2nnc(COC(=O)c3nn(CC(C)C)c(=O)c4ccccc34)o2)cc(OC)c1OC`, the “hERG current change (%, negative = inhibition) at 1uM” value was -5.77%.

Regarding `COc1ccc(CCNC(=O)CCC(=O)Nc2ccccc2[N+](=O)[O-])cc1OC`, the “hERG current change (%, negative = inhibition) at 1uM” value is reported as 11.5%. The figure for `NC1=NS(=O)(=O)NC1c1cccc(Cl)c1` (centres unmarked) is 8.78%; for `CCCCNC(=O)O[C@H]1C[C@@H]2CCN3C(=O)CCC[C@H]([C@H]1Cc1ccccc1)[C@H]23` it is 12.6%; for `CC1CCCC(NC(=O)CN2CCN(S(=O)(=O)c3cccs3)CC2)C1C` (centres unmarked) it is 3.86%.

Take `Cc1sc(NC(=O)Cn2cnnn2)nc1-c1ccc(Cl)cc1`: the “hERG current change (%, negative = inhibition) at 1uM” value is recorded as 2.58%. The value for `Cc1ccc(NC(=O)C2C3CCC(O3)C2C(=O)O)c(Br)c1` (centres unmarked) was 21%; that for `CCCOC(=O)c1ccc(OC(=O)c2ccco2)cc1` was 10.7%. Take `COc1ccc(NC(=S)N/N=C2\CC(C)(C)Oc3ccc(OC)cc32)cc1`: the “hERG current change (%, negative = inhibition) at 1uM” value is 9.81%. The value for `FC(F)(F)c1cnc(COc2ccc(Cl)cc2Cl)c(Cl)c1` was 10.3%; that for `O=C(COc1ccc2ccccc2c1)Nc1cccnc1Cl` was -3.52%; that for `Cc1ccc(N(C(=O)c2ccco2)C(C(=O)NC2CCCC2)c2ccco2)c(C)c1` (centres unmarked) was 11.2%. The value for `CCOC(=O)c1c(-c2ccc(C)o2)csc1NC(=O)CN(C)CC(=O)Nc1ccc(C)cc1` was 11.4%. `COC(=O)CCC(=O)NNC(=O)CCC(=O)Nc1cccc(Cl)c1C`: the “hERG current change (%, negative = inhibition) at 1uM” value was -7.98%. The figure for `Cc1c(S(=O)(=O)N2CCN(C(=O)c3ccco3)CC2)c(=O)n(C)c(=O)n1C` is 3.03%; for `COc1nc(Nc2ccc3c(c2)OCO3)nc(OC)n1` it is 9.52%; for `Cc1cc(C)c(NC(=O)c2ccc[n+](Cc3ccc([N+](=O)[O-])cc3)c2)c(C)c1.[Br-]` it is 3.82%. Take `CCOC(=O)N1CCN(C(=O)CSc2nnc(CNC(=O)c3ccccc3F)o2)CC1`: the “hERG current change (%, negative = inhibition) at 1uM” value was determined as 11.8%. The value for `Cn1c(NC(=O)c2ccco2)c(-c2ccccc2)c(=O)c2ccccc21` was 7.77%.
